Laboratory results reported in the supplement of paper PMC5919970.
Counter-ions that a name gives are not always drawn. The full ranking holds about 2,000 compounds; the median of “fractional viability relative to vehicle” is about 0.92, and the lowest 2% start at about 0.11. This is one part of the list.

Tested on: TYKNU
Assay: fractional viability relative to vehicle; TYKNU is a high-grade serous ovarian cancer line; higher = less growth inhibition
Conditions: 72 h, genotype: OPA1 knockout (sgOPA1 #2)
How it was run: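 Drug treatment lasted 72 h, with cells grown at 37 °C in 5% CO2 in RPMI 1640 supplemented with 10% FBS. Beforehand, TYKNU control cells or their lentiCRISPRv2 knockout derivatives had been seeded at 500 cells per well into drug-stamped 384-well plates carrying a ~2100-compound library at 2 or 10 μM, in duplicate. Viability came from Cell Titer Glo luminescence, with averaged duplicate treatment wells normalised to duplicate control wells in the same plate position.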

Structure (SMILES)	fractional viability (2uM)	fractional viability (10uM)
C[C@@H]1CN(c2c(F)c(N)c3c(=O)c(C(=O)O)cn(C4CC4)c3c2F)C[C@H](C)N1 [Sparfloxacin]	0.953	1.05
CCNC(=O)c1noc(-c2cc(Cl)c(O)cc2O)c1-c1ccc(OC)cc1	0.542	0.368
CCOC(=O)c1ccc(N2NC(=O)C(=Cc3ccc([N+](=O)[O-])o3)C2=O)cc1	0.854	1.09
CCn1cc(C(=O)O)c(=O)c2cc(F)c(N3CCN(C)CC3)cc21 [Pefloxacin Mesylate Dihydrate]	0.965	1.13
CCn1cc(C(=O)O)c(=O)c2cc(F)c(N3CCN(C)CC3)cc21 [Pefloxacin Mesylate]	1	1.02
C=CC(=O)Nc1cccc(Nc2nc(Nc3ccc(NC4CN(CCF)C4)cc3OC)ncc2C(F)(F)F)c1	0.897	0.432
CS(=O)(=O)Nc1ccc([N+](=O)[O-])cc1Oc1ccccc1 [Nimesulide]	1	0.937
CNC(=C[N+](=O)[O-])NCCSCc1csc(CN(C)C)n1 [Nizatidine]	1	1.08
CCC1=C[C@@H]2CN(C1)Cc1c([nH]c3ccccc13)[C@@](C(=O)OC)(c1cc3c(cc1OC)N(C)[C@H]1[C@@](O)(C(=O)OC)[C@H](OC(C)=O)[C@]4(CC)C=CCN5CC[C@]31[C@@H]54)C2 [Vinorelbine Tartrate]	0.363	0.303
CC(C)CN(C[C@@H](O)[C@H](Cc1ccccc1)NC(=O)O[C@H]1CCOC1)S(=O)(=O)c1ccc(N)cc1 [Amprenavir]	1.05	0.901
CCOC(=O)CCC(=O)O[C@H]1[C@H](O[C@@H]2[C@@H](C)[C@H](O[C@H]3C[C@@](C)(OC)[C@@H](O)[C@H](C)O3)[C@@H](C)C(=O)O[C@H](CC)[C@@](C)(O)[C@H](O)[C@@H](C)C(=O)[C@H](C)C[C@@]2(C)O)O[C@H](C)C[C@@H]1N(C)C [Erythromycin Ethylsuccinate]	0.98	0.773
COc1cc(NC(=O)c2ccc(-c3ccc(Cl)cc3)o2)cc(OC)c1	1.21	1.32
C[C@]12C=CC(=O)C=C1CC[C@@H]1[C@@H]2C(=O)C[C@@]2(C)[C@H]1CC[C@]2(O)C(=O)CO [Prednisone]	1.09	1.09
c1ccc2c(Oc3nc(Nc4ccc(N5CCOCC5)cc4)c4ncn(C5CCCCC5)c4n3)cccc2c1 [Purmorphamine]	1.04	1.11
C=C1/C(=C\C=C2/CCC[C@]3(C)[C@@H]([C@H](C)CCCC(C)(C)O)CC[C@@H]23)C[C@@H](O)C[C@@H]1O [Calcitriol]	0.965	0.937
CCC[C@H](NC(=O)/C(C#N)=C/c1cccc(Br)n1)c1ccccc1 [Degrasyn (WP1130)]	0.343	0.0765
CCOC(=O)NCCCC(=O)NCCc1ccccc1	0.877	0.962
OC[C@H]1O[C@@H](OCCc2ccc(O)cc2)[C@H](O)[C@@H](O)[C@@H]1O [Salidroside]	0.744	0.849
COC(=O)c1ccc2c(c1)[nH]c1ncnc(NCCCN3CCCCC3)c12	0.785	0.985
C[C@H]1[C@H](NC(=O)/C(=N\OC(C)(C)C(=O)O)c2csc(N)n2)C(=O)N1S(=O)(=O)O [Aztreonam]	1.07	0.683
CCc1c2c(nc3ccc(OC(=O)N4CCC(N5CCCCC5)CC4)cc13)-c1cc3c(c(=O)n1C2)COC(=O)[C@]3(O)CC [Irinotecan HCl Trihydrate]	0.901	0.462
CCc1c2c(nc3ccc(OC(=O)N4CCC(N5CCCCC5)CC4)cc13)-c1cc3c(c(=O)n1C2)COC(=O)[C@]3(O)CC [Irinotecan]	1.04	0.597
CCc1cc(C(N)=S)ccn1 [Ethionamide]	1.12	1.05

Structure (SMILES)	fractional viability (2uM)	fractional viability (10uM)
OCc1ccc(O[C@@H]2O[C@H](CO)[C@@H](O)[C@H](O)[C@H]2O)cc1 [Gastrodin]	1.12	1.01
O=C(NC(NC(=S)Nc1ccc(F)c([N+](=O)[O-])c1)C(Cl)(Cl)Cl)C(c1ccccc1)c1ccccc1 (centres undefined)	0.908	0.406
Cn1cc(C2=C(c3ccc(Cl)cc3Cl)C(=O)NC2=O)c2ccccc21	1.01	0.935
O=C(N/N=C/c1ccc([N+](=O)[O-])o1)c1ccc(O)cc1 [Nifuroxazide]	1.36	0.246
Cc1cc(NC(=O)c2cccc(NC(=O)/C=C/CN(C)C)c2)ccc1Nc1nccc(-c2cccnc2)n1	1.16	0.489
Cc1cccc(Nc2cc(Cl)nc(SCC(=O)O)n2)c1C	0.793	0.725
Cc1cn([C@@H]2C[C@@H](O)[C@H](CO)O2)c(=O)[nH]c1=O [Telbivudine]	1.07	0.976
FC(F)(F)c1ccc(/C=C/c2nc(COc3ccc(CCCCn4ccnn4)cc3)co2)cc1 [Mubritinib (TAK 165)]	0.728	0.742
O=C1c2c(O)cc(O)cc2OC(c2ccc(O)c(O)c2)C1O (centres undefined) [Taxifolin (Dihydroquercetin)]	0.797	0.944
CN(C)CCCOc1nn(Cc2ccccc2)c2ccccc12 [Benzydamine HCl]	0.962	0.918
CC(C)(C)c1cc(C(=O)C(C#N)=NNc2cccc(Cl)c2)no1	0.706	0.572
CNS(=O)(=O)Nc1nccc(Cc2c(C)c3ccc(Oc4ncccn4)cc3oc2=O)c1F	0.508	0.376
OC[C@@H](O)[C@@H](O)[C@H](O)[C@@H](O)CO [Sorbitol]	1.03	0.961
CC(=O)OCC(=O)[C@@]1(O)CC[C@H]2[C@@H]3CCC4=CC(=O)CC[C@]4(C)[C@H]3C(=O)C[C@@]21C [Cortisone acetate]	0.944	0.931
COc1cc2nc(N3CCN(C(=O)C4CCCO4)CC3)nc(N)c2cc1OC (centres undefined) [Terazosin HCl]	1.14	1.15
CN1CCN(c2cccc(Nc3nc4c(-c5ccc(S(C)(=O)=O)cc5)cccn4n3)c2)CC1	0.974	0.73
CN[C@@H](C)C(=O)N[C@H](C(=O)N1CCC[C@H]1C(=O)Nc1snnc1-c1ccccc1)C1CCCCC1	0.918	0.747
CNC(=O)c1nn(C)c2c1C(C)(C)Cc1cnc(Nc3ccc(N4CCN(C)CC4)cc3)nc1-2	0.882	0.568
CC(C)(O)CC[C@@H](O)[C@](C)(O)[C@H]1CC[C@@]2(O)C3=CC(=O)[C@@H]4C[C@@H](O)[C@@H](O)C[C@]4(C)[C@H]3CC[C@]12C [20-Hydroxyecdysone]	0.814	0.956
COc1cc(C)c(/C=C/C(C)=C/C=C/C(C)=C/C(=O)O)c(C)c1C [Acitretin]	1.02	0.73
C[C@@H]1COCCN1c1cc(C2([S@](C)(=N)=O)CC2)nc(-c2cc[nH]c3nccc2-3)n1	0.396	0.516
CC(C)(F)C[C@H](N[C@@H](c1ccc(-c2ccc(S(C)(=O)=O)cc2)cc1)C(F)(F)F)C(=O)NC1(C#N)CC1 [Odanacatib (MK-0822)]	1.09	1.01
COc1cc(/C=C/C(=O)O)ccc1O [Ferulic Acid]	1.05	0.837

Structure (SMILES)	fractional viability (2uM)	fractional viability (10uM)
C[N+]1(C)CCC(=C(c2ccccc2)c2ccccc2)CC1 [Diphemanil Methylsulfate]	0.901	0.95
NS(=O)(=O)c1cc2c(cc1Cl)NCNS2(=O)=O [Hydrochlorothiazide]	1.19	1.12
O=C1C(=O)N(Cc2ccc(Cl)c(Cl)c2)c2ccccc21 [Apoptosis Activator 2]	0.461	0.287
O=C(NC1CCOCC1)c1ccc(-c2cc(-c3c[nH]nc3-c3ccccn3)ccn2)cc1	1.21	1.45
CN(C)CCc1c[nH]c2ccc(C[C@H]3COC(=O)N3)cc12 [Zolmitriptan]	1.1	0.856
O=C1c2cccc(O)c2C(=O)c2c(O)cc(CO)cc21 [Aloe-emodin]	0.957	0.96
CN(C)CCC=C1c2ccccc2C=Cc2ccccc21 [Cyclobenzaprine HCl]	0.883	0.9
O=c1[nH]c(=O)n([C@H]2C[C@H](O)[C@@H](CO)O2)cc1F [Floxuridine]	1.25	1.14
C/C(=N\NC(=S)N1CCC1)c1ccccn1	0.768	0.465
NC(=O)c1ncn([C@@H]2O[C@H](CO)[C@@H](O)[C@H]2O)c1N [Acadesine]	1.04	0.819
CC(c1cc2ccccc2s1)N(O)C(N)=O (centres undefined) [Zileuton]	1.17	1
CC1=C(C(=O)OC2CCCCC2)C(c2ccc([N+](=O)[O-])cc2)C2=C(CC(C)(C)CC2=O)N1 (centres undefined)	0.841	0.799
C[C@@H]1C(=O)O[C@H]2C[C@@]34[C@H]5C[C@@H](C(C)(C)C)[C@]36[C@@H](OC(=O)[C@@H]6O)O[C@@]4(C(=O)O5)[C@]21O [Ginkgolide A]	1.09	1.1
O=C(O)C(Cc1ccccc1[N+](=O)[O-])=NNc1nc(-c2ccc(Cl)c(Cl)c2)cs1 (mixture of isomers)	0.97	0.774
Nc1ccc(O)c(C(=O)O)c1 [Mesalamine]	1.18	1
COC(=O)N1CCN(Cc2cccc(NC(=O)Nc3ccc(C)nc3)c2F)CC1	1.01	0.982
O=C(O)CSc1cc(NS(=O)(=O)c2ccc(Br)cc2)c2ccccc2c1O	0.835	0.365
CC(C)NC[C@H](O)COc1ccc(CCOCC2CC2)cc1 [Levobetaxolol HCl]	1.04	0.97
COC(=O)C1=C(C)NC(C)=C(C(=O)OC)C1c1ccccc1[N+](=O)[O-] [Nifedipine]	0.946	1.16
NC(=O)c1cccc2[nH]c(-c3ccc(C4CCCN4)cc3F)nc12 (centres undefined)	0.735	0.788
COc1cc2c(cc1O)CC[C@@H]1[C@@H]2CC[C@]2(C)[C@@H](O)CC[C@@H]12 [2-Methoxyestradiol (2-MeOE2)]	0.704	0.592
